In all, about 48,000 compounds went through this assay and about 1,200 (2.5%) were called active. Inconclusive results (about 2%) are left out.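 How the source made its calls: active means activation of at least 60% and not above a set upper limit (about 1 call in 100 departs from these limits); inconclusive means activation of 40% to 60%, or above that upper limit; inactive means activation under 40%.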 The list shows a part of the results.
Biological target: Probable G-protein coupled receptor 32 (Homo sapiens) (UniProt O75388)
Assay: qHTS for Agonists of Human Resolvin D1 Receptor DRV1; further: 0% is about no effect
Details: CHO-K1 GPR32 beta-arrestin PathHunter luminescence, 90 min; at 76.9 µM; active compounds read high; zero percent set by DMSO-only wells
Summary of the method: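 Beta-arrestin recruitment read-out: luminescence from complemented beta-Gal in CHO-K1 GPR32 PathHunter cells, measured 1 h after detection reagent at ambient temperature following 90 min compound exposure at 37 °C; DMSO served as basal (EC0) control.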

Sequence of UniProt O75388 (O75388 whole entry, looked up): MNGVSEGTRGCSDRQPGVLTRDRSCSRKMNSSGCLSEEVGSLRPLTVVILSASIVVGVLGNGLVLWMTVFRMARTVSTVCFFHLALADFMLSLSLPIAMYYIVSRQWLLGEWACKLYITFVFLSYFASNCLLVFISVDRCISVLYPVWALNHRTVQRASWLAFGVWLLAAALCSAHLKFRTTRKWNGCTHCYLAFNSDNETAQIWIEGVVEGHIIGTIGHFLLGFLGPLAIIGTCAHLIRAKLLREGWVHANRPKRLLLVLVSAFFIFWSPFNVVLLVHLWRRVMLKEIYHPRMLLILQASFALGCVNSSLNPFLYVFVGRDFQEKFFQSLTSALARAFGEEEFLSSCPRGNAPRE

activation, inactive:
Cc1ccc2c(c1)N(C(=O)N1CCC(C(=O)NCc3ccccc3F)CC1)CC(C)O2 (centres undefined) -0.962%, Cc1cccc(NC(=O)c2sc(-n3nc(C)c(CCC(C)C)c3C)nc2C)c1 -5.15%, Nc1c(C(=O)c2ccccc2)sc(Nc2ccc(Cl)c(Cl)c2)c1C(=O)Nc1ccccc1 -105%, COC1=C(OC)C(=O)c2ccccc2C1=O 23.9%, CCOC(=O)CSc1nc2c(sc3ccccc32)c(=O)n1Cc1ccc(OC)cc1 -14.4%, N#Cc1ccccc1OCC(=O)N1CCN(c2ccccc2F)CC1 4.98%, COc1cc2ccccc2cc1C(=O)Nc1ccc2oc(-c3cccc(C)c3)nc2c1 -5.04%, O=S(=O)(c1ccccc1)c1nc(-c2ccccc2F)oc1N1CCOCC1 14.7%, COc1ccc(-c2cn3c(n2)sc2cc(C(=O)Nc4ccc(C)cc4C)ccc23)cc1 -2.5%, COc1ccc(CCNc2nc3cc(OC)c(OC)cc3c3nc(-c4cccnc4)nn23)cc1OC 6.66%, COc1ccc(OC)c(NC(=O)N2CCN(Cc3nc4ccc(C)cc4o3)CC2)c1 -7.72%, COc1ccc(-n2c3c(cc(-c4nc(-c5ccc(Cl)cc5)cs4)c2=O)C(=O)CC(C)(C)C3)cc1Cl 24.1%, CCOc1ccc(NC(=O)CCSc2nc(-c3ccc4c(c3)OCO4)cc(C(F)(F)F)n2)cc1 -4.25%, Cc1cc(-n2nc3ccc(Cl)cc3n2)c(O)c(C(C)(C)C)c1 -2.4%, CCN1C(=O)c2ccccc2Sc2ccc(NC(=O)c3ccc(C#N)cc3)cc21 18.3%, Cc1ccccc1NCc1nc2ccccc2n1CCOc1ccccc1 -20%, O=C1NC(c2ccccc2)(c2ccccc2)C(=O)N1COP(=O)(O)O -1.15%, CN(C(=O)Cn1nnc(-c2ccc(S(C)(=O)=O)cc2)n1)c1ccccc1 -4.68%, Cc1c(C(=O)N(C)C)sc2c1c(=O)n(-c1ccccc1C(F)(F)F)c(=O)n2Cc1cccc(F)c1 -42.7%, COc1ccc(C(=O)Nc2nc3c(s2)Cc2cc(OC)ccc2-3)cc1 -27.7%, O[C@@H]1CO[C@H]2[C@@H]1OC[C@@H]2O -3.66%, COc1ccc(NC(=O)CSc2oc(-c3ccco3)nc2S(=O)(=O)c2ccccc2)c(OC)c1 0.985%, CCOc1ccc(N2CC(c3nc4ccccc4n3CCOc3ccccc3)CC2=O)cc1 (centres undefined) -21.6%, COc1ccc(C2C=C(c3ccccc3)Nc3nc(NC(=O)/C=C/c4ccc(Cl)cc4)nn32)cc1 (centres undefined) -23.9%, Cc1ccc(NC(=O)c2cc(S(=O)(=O)N3CCCCC3)c[nH]2)cc1F -5.65%, Cc1nn(-c2ccccc2)c2sc(C(=O)Nc3cccc(Br)c3)cc12 3.36%, Cc1nc2ncnn2c(C)c1CCC(=O)NCc1cccc(Cl)c1 -3.1%, CCOC(=O)c1c(NC(=O)COc2ccc(Br)cc2)sc(C(C)=O)c1C -6.45%, Cc1noc(C)c1S(=O)(=O)NCCc1csc2nc(-c3ccc(Cl)cc3)nn12 22%, O=C(COc1ccc(F)cc1)Nc1ccc(Cl)c(-c2nc3ccccc3[nH]2)c1 3%, COc1ccccc1-c1nnc(C2CCN(S(=O)(=O)c3ccc(F)c(C)c3)CC2)o1 -7.3%, CCOC(=O)N1CCN(C(=O)Cn2ncc3c4ccccc4n(Cc4ccc(F)cc4)c3c2=O)CC1 -15.4%, Cc1cccc(NC(=O)c2c(C)oc3ncnc(N4CCCCC4)c23)c1C -18%, CCCCc1nn2c(=O)cc(COC(=O)c3ccccc3NC(=O)c3cccc(C)c3)nc2s1 -24.3%, COc1ccc2nc(NC(=O)c3cc(=O)c4cc(C)c(C)cc4o3)sc2c1 -7.72%, CC(=O)Nc1cccc(-c2cn3cccnc3n2)c1 23.2%, Cc1ccc(NC(=O)Cn2c(=O)n(Cc3ccccc3)c(=O)c3c2c2cc(C)ccc2n3C)cc1 -4.77%, Cc1nc(-c2ccc(F)cc2)sc1CCNC(=O)c1ccc(C(C)(C)C)cc1 -11.2%, Cc1ccc(Cl)cc1NS(=O)(=O)c1ccc(N2CCCCS2(=O)=O)cc1 4.62%, CCOc1ccc(C(=O)c2c(N)c(-c3nc(-c4ccc(OCC)cc4)cs3)c3ccccn23)cc1 8.01%, Cc1ccc(C(=O)NCC(c2cccnc2)N2CCc3ccccc3C2)cc1C (centres undefined) -11.7%, CCOc1ccc(NC(=O)CCn2nc(C)c(S(=O)(=O)N3CCCCC3)c2C)cc1 -9.92%, Cc1nnc(NCc2ccc(F)cc2)c2c1nnn2Cc1ccccc1Cl 3.8%, CCc1ccc(N2C(=O)N(CC(=O)C(C)(C)C)c3ccccc3S2(=O)=O)cc1 -2.76%, O=C(NCCC1=CCCCC1)c1ccc2c(c1)N(Cc1ccc(Cl)cc1)C(=O)c1ccccc1S2(=O)=O 5.86%, COc1ccc(OC)c(NC(=O)CSC2=Nc3ccccc3C3=NC(CCC(=O)NCCc4ccccc4)C(=O)N23)c1 (centres undefined) -8.89%, COc1ccccc1N1CCN(S(=O)(=O)c2c(C)sc3ncn(CC(=O)NCCN(C)C)c(=O)c23)CC1 6.03%, COc1ccc(NC(=O)CC2C(=O)N(c3ccc(C)cc3)C(=O)N2Cc2ccc(C)cc2)cc1 (centres undefined) 24.7%, COc1ccc(CCNC(=O)Cn2nc(C)c3c(C)n(-c4ccc(C)cc4)nc3c2=O)c(OC)c1 -2.86%, Cc1c(Cl)cccc1NC(=O)Cn1cnc(S(=O)(=O)N2CCCC2)c1 -1.75%, CCN(CC)CCCNC(=O)c1nn(-c2ccc(OC)cc2)c(=O)c2c1c1ccccc1n2C -22.9%, O=c1c2ccccc2nc(N2CCN(c3cccc(Cl)c3)CC2)n1-c1ccccc1 -19.9%, Nc1ccc(S(=O)(=O)NC2(C(F)(F)F)NC(=O)N(c3cccc(Cl)c3)C2=O)cc1 (centres undefined) 5.26%, CCC(C(=O)N1CCN(c2ccc(OC)cc2)CC1)n1nc(C)n2c(cc3occc32)c1=O (centres undefined) 18.4%, COc1ccc(Nc2c3c(nc4nncn24)CCC3)cc1Cl -3.54%, CCOC(=O)c1noc2ncnc(Nc3cccc(C(F)(F)F)c3)c12 -25.2%, COC(=O)c1cccc(CN2C(=O)SC(Nc3ccc(Cl)cc3)C2=O)c1 (centres undefined) -70.9%, COCCNC(=O)c1ccc2c(c1)N(Cc1c(F)cccc1Cl)C(=O)c1ccccc1S2 -29.3%, CCOC(=O)c1c(C)oc2nc(C)nc(NCc3ccc(OC)cc3)c12 -2.97%, CCCc1cc(=O)[nH]c(Nc2ccc(C)c(O)c2)n1 -8.24%, CCCCOc1ccc(C(=O)Nc2nc3c(s2)CC(C)CC3)cc1 (centres undefined) 3.75%, CC(=O)Nc1ccc(NC(=O)CCc2c(C)nc3c(c(C)nn3-c3ccccc3)c2C)cc1 -2.62%, O=C(Nc1ccccc1C(F)(F)F)N1CCC2(CC1)Oc1ccccc1C(=O)N2Cc1ccccc1F -24.4%, O=C(NCCc1ccccc1)C1COc2ccccc2C1 (centres undefined) -17.6%, CCOC(=O)N1CCc2c(sc3c2c(=O)n(-c2ccc(F)cc2)c(=O)n3CC(=O)c2ccccc2)C1 -14.6%, Cc1cccc(CN2C(=O)c3ccccc3Sc3ccc(C(=O)NCc4cccs4)cc32)c1 -17.2%, CCc1ccc(NC(=O)c2cc(C)nn2-c2ccccc2)cc1 -23.1%, CCOC(=O)c1c(C)n(-c2ccccc2)c2ccc(OC(=O)c3cc(OC)cc(OC)c3)cc12 -7.23%, Cc1cc(=O)n(CC(=O)NC(C)c2ccccc2)c2c1c(C)nn2C (centres undefined) 25.9%, CCOC(=O)c1c(NC(=O)c2cc3ccccc3c(=O)o2)sc2c1CCC(C(C)(C)C)C2 (centres undefined) -10.6%, Cc1ccc(Nc2nc(C)c(NC(=O)c3ccc(C)cc3)c(Nc3ccc(C)cc3)n2)cc1 -19.5%, CCOc1ccc(C(=O)Nc2ccc3oc(-c4ccncc4)nc3c2)cc1 -12.3%, CCS(=O)(=O)N1CCc2cc(C(=O)Nc3cc(OC)c(Cl)cc3OC)ccc21 -8.5%, CCc1cccc(C)c1NC(=O)C(CC)Sc1nncn2c1cc1occc12 (centres undefined) -23.7%, CCC(=O)Nc1cc(-c2nc3ccccc3s2)c(Cl)cc1Cl -7.73%, CCOc1ccc(NC(=O)CCNS(=O)(=O)c2cccc3nsnc23)cc1 3.01%, Cn1c(=O)n(C)c2cc(NS(=O)(=O)c3ccc(C(C)(C)C)cc3)c(NCc3ccccc3)cc21 -20.1%, Cc1cccc(C(=O)Nc2nnc(S(=O)(=O)N3CCCc4ccccc43)s2)c1 48.3%, Cc1ccc(NC(=O)Cn2cc(C(=O)C3CCCCC3)c3ccccc32)c(C)c1 -0.635%, CCCNc1nc2c(c(=O)n(C)c(=O)n2C)n1CC(O)COc1ccccc1 (centres undefined) 8.13%, COc1ccc(NC(=O)c2oc3ccccc3c2NC(=O)COc2ccc(F)cc2)c(OC)c1 -3.72%, O=C(NCc1ccc(F)cc1)C(=O)NCC(c1ccco1)S(=O)(=O)c1cccs1 (centres undefined) -10.9%, O=C(c1ccc2c(c1)N(Cc1ccc(Cl)cc1)C(=O)c1ccccc1S2(=O)=O)N1CCc2ccccc21 -1.61%, CCC(C(=O)Nc1cccc(C#N)c1)n1nc(-c2ccccc2)ccc1=O (centres undefined) -9.46%

Source: PubChem BioAssay AID1346428 (National Center for Advancing Translational Sciences (NCATS), 2018)
